The values below come from ChEMBL document CHEMBL1201862, “PubChem BioAssay data set” (2004).

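Assay format: 96-well plates, 48-hour exposure. GI50: concentration for 50% inhibition of growth.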 Calls of active or inactive are those of the source. No stated cut-off is given here; in the data, active = GI50 up to about 1.1 µM and inactive = higher. Some results are limits rather than exact numbers.

This assay has as its system NCI-H322M. Description: DTP human tumour cell line panel, 48 h.
One may read the GI50 as the concentration at which growth is held to half of that of the control. As for `NC1(C(=O)OCc2ccccc2)CCCC1`, the GI50 was inactive: 29.2 µM.

`Cc1ccc(/C(O)=C/c2nc3ccccc3oc2=O)cc1`: the GI50 was inactive: 94.8 µM. On to `NC1=NS(=O)(=O)N=C(N)C1=Cc1ccc([N+](=O)[O-])o1`, for which the GI50 was inactive: 57.1 µM. For the compound `C/C(=C\CO)CC[C@@H]1[C@@]2(C)CCCC(C)(C)[C@@H]2CC[C@@]1(C)O`, the GI50 is inactive: 82.4 µM. In the case of `C[n+]1c(-c2ccccc2)cc2/c(=C\c3ccccc3)c3ccccc3n21`, the GI50 is inactive: 3.56 µM. Under `COc1cc2c3c(c1OC)-c1c(ccc4c1OCO4)CC3(C#N)N(C(=O)c1ccccc1)CC2` (stereo not given) stands inactive: > 100 µM; under `COc1ccc(/C=C2\C[C@H]3[C@@H]4CCC5=CC(=O)CC[C@]5(C)[C@H]4CC[C@]3(C)C2=O)cc1OC`, inactive: 24.3 µM; under `NNC(=O)CSc1nc2ccc(I)cc2c(=O)n1Cc1ccccc1`, inactive: 22.2 µM. Turning to `COc1ccc(C(=O)C(C(=O)CC(=O)Nc2cccc(C(F)(F)F)c2)c2ccc(OC)cc2)cc1` (stereo not given), the GI50 was inactive: > 100 µM. Turning to `O=C(CSc1nnc(-c2ccc(/N=C\c3ccc(Cl)cc3)cc2)o1)Nc1ccc(Cl)cc1Cl`, the GI50 was inactive: 29.5 µM. With `Fc1cccc(F)c1C1SCc2nc3cc(Cl)c(Cl)cc3n21` (stereo not given), the GI50 was inactive: > 100 µM. Turning to `CC1(C)C=C(/C=C2/N(S(=O)(=O)C(F)(F)F)C(/C=C3/N(S(=O)(=O)C(F)(F)F)C(C)(C#N)CC3(C)C)=CC2(C)C)N=C1/C=C1/CC(C)(C)C(=O)N1` (stereo not given), the GI50 is inactive: 13.6 µM. Under `CC1C(=O)CC(c2cccs2)N(N=O)C1c1cccs1` (stereo not given) stands inactive: > 100 µM; under `CC(=O)CC1CCC(=O)/C=C/C(=O)OC(CC(C)=O)CCC(=O)/C=C/C(=O)O1` (stereo not given), inactive: 22.2 µM. Regarding `CC[C@]12C=CCN3CC[C@@]4(c5cc(Br)c(OC)cc5N(C)[C@H]4[C@@](O)(C(=O)N[C@@H](Cc4ccc(O)cc4)C(=O)OC)[C@@H]1O)[C@@H]32`, the GI50 is inactive: 3.85 µM. The figure for `CCc1nc2c(O)ccc(O)c2nc1C` is inactive: 18.7 µM; for `COC(=O)C1=C(C(=O)OC)SC(=CC#CC=C2SC(C(=O)OC)=C(C(=O)OC)S2)S1` it is inactive: 9.95 µM. Take `Nc1n[n+]2cc(-c3ccccc3)n(CC(=O)c3ccccc3)c2s1`: the GI50 is inactive: 47.2 µM. Consider `O=C1CCCn2c(nc3ccccc32)N1`, for which the GI50 was inactive: > 100 µM. The figure for `Cc1ccc(NC(=O)SCCC(=O)O)cc1NC(=O)SCCC(=O)O` is inactive: > 100 µM; for `Clc1ccccc1-c1nn2c(CCCCCCCCc3nnc4sc(-c5ccccc5Cl)nn34)nnc2s1` it is inactive: > 100 µM. As for `CC[C@@H]1CC[C@@H]2[C@H](CC[C@]3(C)[C@@H](O[N+](=O)[O-])CC[C@@H]23)[C@H]1C(C)=O`, the GI50 is inactive: 88.3 µM.

In the case of `COc1ccccc1/C(=N\OCCC(=O)O)c1cccs1`, the GI50 is inactive: > 100 µM. Regarding `CCCCCCCCCCCCCCCC(=O)OCC1OC(n2cc(F)c(=O)[nH]c2=O)C(NC(=O)N(CCCl)N=O)C(O)C1O` (stereo not given), the GI50 is inactive: 4.4 µM.

In the case of `O=C1CC(c2ccccc2)NCN1` (stereo not given), the GI50 was inactive: > 100 µM. Under `CCOC(=O)/C(=C\c1cn(C(C)=O)c2ccccc12)P(C)(=O)OCC` (stereo not given) stands inactive: 31 µM. Turning to `COc1ccc(CC2Cc3ccccc3CC(=O)N2)cc1OC` (stereo not given), the GI50 was inactive: > 100 µM. As for `CC(C)(C)c1cc(C(O)(C(=O)O)C(=O)O)cc(C(C)(C)C)c1O`, the GI50 was inactive: > 100 µM.

Regarding `O=c1[nH]nc(Cc2ccccc2)n1/N=C/c1ccccc1Cl`, the GI50 is inactive: > 100 µM.

With `CCC(C)(C)C1CCC2c3c([nH]c4ccccc34)C3C(=O)N(c4ccc(OC)cc4)C(=O)C3C2C1` (stereo not given), the GI50 is inactive: 23.9 µM.

`O=[N+]([O-])c1cccc(-c2ncnc(-c3cccc([N+](=O)[O-])c3)n2)c1`: the GI50 was inactive: > 100 µM. Turning to `CC1OC(OC2C(O)COC(OC3C(C)OC(OC4C(OC(=O)[C@]56CCC(C)(C)C[C@@H]5C5=CCC7[C@@]8(C)C[C@H](O)[C@H](OC9OC(CO)C(O)C(O)C9O)[C@@](C)(CO)[C@@H]8CC[C@@]7(C)[C@]5(C)CC6)OCC(O)C4O)C(O)C3OC3OCC(O)C(O)C3O)C2O)C(O)C(O)C1O` (stereo not given in full), the GI50 was inactive: 16 µM. The figure for `CC1NS(=O)(=O)N(C)C1=O` (stereo not given) is inactive: > 100 µM; for `CC(C)C(Cl)CC/C(CBr)=C(\Cl)CCl` (stereo not given) it is inactive: 16 µM. On to `COc1ccc2cccc(C(=O)c3ccc(C)c4c3CCC4)c2c1`, for which the GI50 is inactive: 65.9 µM. Under `Nc1nc(N)nc(-c2cnccn2)n1` stands inactive: > 100 µM. Take `CCCCCCCCCCC/C=C(/C(=O)CCCO[Si](C)(C)C(C)(C)C)C(=O)OC`: the GI50 is inactive: > 100 µM. As to `CC/C=C/C(/C=C/C[C@]1(CC)C[C@H](CC)[C@H](CC(=O)O)OO1)CC` (stereo not given in full), the GI50 was inactive: 2.97 µM.

Regarding `CC1=NN(C(=O)CC(=O)Nc2cccc(Cl)c2)C(=O)C1/N=N\c1ccc(S(=O)(=O)c2ccc(/N=N/C3C(=O)N(C(=O)CC(=O)Nc4cccc(Cl)c4)N=C3C)cc2)cc1` (stereo not given), the GI50 was inactive: > 100 µM.

Turning to `N=C(c1ccc(-c2cn3cc(C(=N)N4CCCC4)ccc3n2)cc1)N1CCCC1`, the GI50 is inactive: > 100 µM. `Cc1ccc(S(=O)(=O)n2c3c(c4ccccc42)CCN2CCC(Br)C[C@@H]32)cc1` (stereo not given in full): the GI50 was inactive: 19.1 µM. For the compound `COc1ccc(-c2cc(-c3cc(Cl)cc(Br)c3O)nc(O)n2)cc1`, the GI50 was inactive: 21.4 µM. In the case of `CCCCC1CC(c2cccc([N+](=O)[O-])c2)=NO1` (stereo not given), the GI50 is inactive: > 100 µM.

As for `C/C(=N\NS(=O)(=O)c1ccc(C)cc1)c1ccc[n+]([O-])n1`, the GI50 is inactive: > 100 µM. Turning to `c1ccc(-c2nc3sccn3n2)cc1`, the GI50 was inactive: > 100 µM. As to `CC(C)N/C(=N\C#N)NS(=O)(=O)c1cnccc1NC1CCCCCCC1`, the GI50 was inactive: > 100 µM. In the case of `COC(=O)/C=C(\C(=O)OC)c1c2c3c(cc(OC)c(OC)c3c3ccccc13)CCN2C`, the GI50 is inactive: > 100 µM.

Regarding `COC(=O)Cc1cc(=O)[nH]c2c1C(=O)CCC2`, the GI50 was inactive: > 100 µM. As to `CCCCCCCCCCCCCCCCOCC(Cl)CP(=O)(O)OP(=O)(O)OCC1OC(n2cnc3c(N)ncnc32)C(O)C1O` (stereo not given), the GI50 is inactive: > 100 µM. Take `CC1(C)OC2C(O1)[C@H]1OC(C(Cl)(Cl)Cl)=N[C@H]1C(I)[C@H]2N1C(=O)c2ccccc2C1=O` (stereo not given in full): the GI50 was inactive: 81.3 µM. In the case of `CC(C)N1C(C)[C@@H](c2ccccc2)O[P@]1(=O)CC1=CCCCC1` (stereo not given in full), the GI50 was inactive: > 100 µM. For the compound `N/C(=N/c1ccc(O)cc1)S(=O)O`, the GI50 was inactive: > 100 µM. As to `COC1=CC(C)C2C[C@H]3O[C@H](O)C[C@H]4C(C)C(=O)C(O)C([C@@]2(C)C1=O)[C@@]34C` (stereo not given in full), the GI50 was inactive: > 10 µM. On to `O=C1C(O)=C(C(C2=C(O)C(=O)c3ccccc3C2=O)c2ccc(Cl)cc2)C(=O)c2ccccc21`, for which the GI50 is inactive: 17.6 µM. For `CN(C)CCC1(C2=CCCC2)CC/C(=C\c2ccc(Cl)cc2)C1=O` (stereo not given), the GI50 is inactive: 12.4 µM.
